This is one part of the list.
The compounds below were run on T1, C. trachomatis L2/434/Bu expressing GFP (CTL2-GFP). Conditions: total inclusion area; 28.5 h, 10 µM; inhibitor.
T1 construct: L2/434/Bu GFP intracellular growth in HeLa cells
Set-up: species or system HeLa; C. trachomatis total inclusion area by high-content imaging, normalised to DMSO
In short: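 Post-fluorescence-read fixation, DNA staining with Hoechst and high-content imaging; GFP inclusion area and number per well, and nuclei counts, used as proxies for bacterial growth and host viability.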
`COc1ccc([C@@]23CC[C@@H](NC(=O)Nc4ccc(C)c(F)c4F)C[C@@H]2N(C)CC3)cc1OC` [CBK073686T] was tested, and the “% of control remaining” value was 92.5983.
With `COc1cccc2cc(-c3cncn3CCCC(C)(C)CO)oc12` [CBK281817] the “% of control remaining” value was 89.0379.
With `Cc1csc2c(C3CCN(C(=O)c4ccnn4C)CC3)nc(C)n12` [CBK285249] the “% of control remaining” value was 87.6424.
`CC(C)(C)c1nsc(NC2CCCCCC2)n1` [CBK075061] was tested, and the “% of control remaining” value was 94.5642.
For `O=C(Nc1cccc(CCc2ccccn2)c1)c1ccc([N+](=O)[O-])cc1` [CBK269653], the “% of control remaining” value was 91.7179.
With `c1csc(COc2nccnc2-c2ccsc2)c1` [CBK106770] the “% of control remaining” value was 97.6462.
With `O=C(NC1Cc2ccccc2C1)c1ccno1` [CBK200358] the “% of control remaining” value was 104.518.
With `O=C(CCNS(=O)(=O)c1ccccc1Cl)N1CCN(C(=O)C2CC2)CC1` [CBK306025] the “% of control remaining” value was 67.9196.
For `CS(=O)(=O)N(CC(=O)NCc1ccccn1)c1ccc2c(c1)OCO2` [CBK269385], the “% of control remaining” value was 82.4701.
In the case of `CCC(O)CN1CCCC(c2nc3cc(C)ccc3[nH]2)C1` (stereo not drawn) [CBK304854], the “% of control remaining” value is reported as 73.0946.
For `C(=C\c1ccccc1)/CN1CCN(CCc2ccccc2)CC1` [CBK261893], the “% of control remaining” value was 87.8724.
For `c1ccc(C(Nc2ncc(-c3cnccn3)c(-c3ccco3)n2)c2ccccc2)cc1` [CBK286413], the “% of control remaining” value was 99.5996.
In the case of `S=C(NCCC(c1ccccc1)c1ccccc1)Nc1ccc(Cl)c(Cl)c1` [CBK263972], the “% of control remaining” value is reported as 78.7807.
`COCCCN(Cc1cc(F)cc(F)c1)Cc1ccccn1` [CBK282975] was tested, and the “% of control remaining” value was 94.2499.
`CC(C)c1ccc(S(=O)(=O)Nc2ccc(OC(F)F)cc2)cc1` [CBK044565] was tested, and the “% of control remaining” value was 76.5852.
`Cc1ccc(O)c(NC(=O)Cn2nc([N+](=O)[O-])c(Br)c2C)c1` [CBK261718] was tested, and the “% of control remaining” value was 99.2696.
In the case of `CCCn1cc(S(=O)(=O)N2CCCC2c2ccc(Nc3cccc(C)n3)cn2)c(C)n1` (stereo not drawn) [CBK286258], the “% of control remaining” value is reported as 113.586.
In the case of `CS(=O)(=O)c1ccc(-c2ccc(C(=O)NCc3cccc(C(F)(F)F)c3)cn2)cc1` [CBK158874], the “% of control remaining” value is reported as 75.2553.
In the case of `Cc1cc(O)cc(C2CCCN(C(=O)c3cccc(F)c3)C2)n1` (stereo not drawn) [CBK283440], the “% of control remaining” value is reported as 71.308.
For `S=C(NCC1CCCCC1)Nc1ncc(Cl)cc1Cl` [CBK067053], the “% of control remaining” value was 93.0481.
With `CN(C(=O)CN1CCCCC1Cn1cccn1)C1(C#N)CCCCC1` (stereo not drawn) [CBK305412] the “% of control remaining” value was 118.72.
With `O=C(O)C1CCN(S(=O)(=O)c2ccccc2[N+](=O)[O-])CC1` [CBK265267] the “% of control remaining” value was 108.022.
`CN(C)[C@@H]1CN(Cc2ccccc2O)C[C@H]1c1cn(C)c2ccccc12` [CBK284895] was tested, and the “% of control remaining” value was 97.6368.
For `COc1cc(C(=O)N2CCCC3(CCN(C(=O)c4ccoc4)C3)C2)cc(OC)c1OC` (stereo not drawn) [CBK131637], the “% of control remaining” value was 80.1989.
In the case of `O=C(NCc1csc2c1CCCC2)N1CC(c2ccccn2)C1` [CBK307499], the “% of control remaining” value is reported as 79.2767.
With `Nn1c(=O)c2ccccc2n2c(SCC(=O)N(c3ccccc3)c3ccccc3)nnc12` [CBK266621] the “% of control remaining” value was 130.297.
With `COc1cc(OC)c(C(C)=O)c(OCCOc2nccnc2N2CCNCC2)c1` [CBK013497T] the “% of control remaining” value was 100.698.
With `CN(C)C(=O)c1cc(-c2ccccc2)cnc1N(C)S(C)(=O)=O` [CBK076473] the “% of control remaining” value was 90.9522.
For `CCCC(=O)Nc1ccc(N2CCNCC2)c2ccccc12` [CBK024619T], the “% of control remaining” value was 103.109.
`CC(CC(=O)NC1(C#Cc2nccs2)CCCCC1)n1ccnc1` (stereo not drawn) [CBK284746] was tested, and the “% of control remaining” value was 64.3609.
For `CC(C)(C)NC(=O)CN1CCN(C(=O)CSc2n[nH]c(=O)n2C2CC2)CC1` [CBK295641], the “% of control remaining” value was 78.1234.
`Fc1ccc(-c2noc([C@@H]3CCCN3Cc3ncc[nH]3)n2)nc1` [CBK288897] was tested, and the “% of control remaining” value was 86.8939.
With `CCOC(=O)c1c(NC(=O)c2cc(-c3ccc(Cl)s3)nc3ccccc23)sc(C)c1CC` [CBK262657] the “% of control remaining” value was 102.845.
With `O=C1NC/C=C/CC2(CCN(Cc3ccc(Cl)cn3)CC2)C(=O)NCCOc2ccccc21` [CBK292008] the “% of control remaining” value was 101.762.
With `O=C(Nc1cc(Oc2cncc(Cl)c2)cc([N+](=O)[O-])c1)c1nn2c(C(F)(F)F)cc(-c3cccs3)nc2c1Cl` [CBK262585] the “% of control remaining” value was 80.9629.
With `CCn1c(C)nc2cc(NC(=O)Cn3cnc4ccccc43)ccc21` [CBK281832] the “% of control remaining” value was 96.8262.
`Cc1nn(CCC#N)c2nc(-c3ccc(F)cc3)cc(C(=O)O)c12` [CBK296974] was tested, and the “% of control remaining” value was 100.688.
In the case of `Cc1c(C(=O)N2CCCCC2C(N)=O)nnn1Cc1ccc(F)cc1F` (stereo not drawn) [CBK304425], the “% of control remaining” value is reported as 52.2077.
With `COCCN1CCN(c2cncc(-c3ccc(O)cc3)n2)CC1` [CBK126951T] the “% of control remaining” value was 133.727.
With `CC1(C)Cc2c(cnn2-c2ccc(F)cc2)C(N)C1` (stereo not drawn) [CBK288200] the “% of control remaining” value was 56.201.
With `Cc1ccc(-c2csc(CC#N)n2)cc1` [CBK047576] the “% of control remaining” value was 68.7533.
In the case of `O=C(CC(CN1CCN(CC(=O)N2CCCC2)CC1)C(=O)O)Nc1ccccc1` (stereo not drawn) [CBK286844], the “% of control remaining” value is reported as 80.2724.
`O=C(NCc1cccnc1OCC(F)(F)F)c1ccc(=O)[nH]n1` [CBK305578] was tested, and the “% of control remaining” value was 78.7355.
In the case of `CC(C)(CO)Cn1c(=O)[nH]c2ncc(-c3ccc(C(N)=O)cc3)nc21` [CBK064787], the “% of control remaining” value is reported as 123.662.
For `CC(CC(=O)C1C(C)C=CCC1(C)C)NNC(=O)c1ccccc1O` (stereo not drawn) [CBK262980], the “% of control remaining” value was 92.531.
For `Clc1cc(CSc2nnnn2-c2ccccc2)cc2c1OCCCO2` [CBK297159], the “% of control remaining” value was 78.9602.
With `CNC(=O)NC(=O)C1CCN(CCOc2ccccc2)CC1` [CBK034959] the “% of control remaining” value was 67.522.
With `CC(C)NC(=O)c1cccc2c1CCCN2Cc1nc2ccccc2o1` [CBK295135] the “% of control remaining” value was 115.62.
In the case of `O=C(CCN1CCOCC1)N/N=C\c1cccs1` [CBK005035], the “% of control remaining” value is reported as 101.739.
With `COc1cc(NC(=O)COc2cc(C)cc(C)c2)c(C(=O)O)cc1OC` [CBK268650] the “% of control remaining” value was 119.501.
`Cc1nc2c(c(=O)[nH]1)CN(Cc1c(C)oc3ccccc13)CC2` [CBK283984] was tested, and the “% of control remaining” value was 94.5568.
With `CCN(CC(=O)NC(C)C)Cc1csc(-c2ccc(F)cc2)n1` [CBK305849] the “% of control remaining” value was 107.425.
With `Cc1csc(NC(=O)CN2CC=C(c3ccc(C)o3)CC2)n1` [CBK283606] the “% of control remaining” value was 115.157.
`Cc1cc(C(=O)Nc2ccccc2C(=O)O)ccc1NC(=O)CC(C)C` [CBK263616] was tested, and the “% of control remaining” value was 90.0496.
`c1cncc(-c2ccc(N3CCN(CCN4CCCC4)CC3)nc2)c1` [CBK037661] was tested, and the “% of control remaining” value was 127.616.
With `Cc1cccc(OCC(=O)Nc2sc3c(c2C(N)=O)CCC3)c1C` [CBK269729] the “% of control remaining” value was 105.12.
In the case of `C=CCn1c2ccccc2c2nnc(SC(CC)C(=O)N3c4ccccc4Sc4ccccc43)nc21` (stereo not drawn) [CBK263040], the “% of control remaining” value is reported as 101.895.
For `O=C(O)CC1S/C(=N/N=C/c2ccc(-c3ccc(Cl)cc3[N+](=O)[O-])o2)NC1=O` (stereo not drawn) [CBK264507], the “% of control remaining” value was 89.7803.
In the case of `CSc1nc(O)c(C(c2ccc(Cl)cc2)c2c(O)nc(SC)nc2O)c(O)n1` [CBK265306], the “% of control remaining” value is reported as 111.092.
`CCNC(=O)N1CC2(CCN(Cc3ccc4nsnc4c3)CC2)c2ccccc21` [CBK136968] was tested, and the “% of control remaining” value was 89.0359.
With `CC(C)CC1C(C#N)=C(N)Oc2n[nH]c(-c3cccs3)c21` (stereo not drawn) [CBK267449] the “% of control remaining” value was 95.0446.
`Cc1cccc(NC(=S)N2CCN(Cc3ccc4c(c3)OCO4)CC2)c1C` [CBK264919] was tested, and the “% of control remaining” value was 107.145.
With `Clc1ccc(-c2cncc(NCCc3ccncc3)n2)cc1` [CBK065787] the “% of control remaining” value was 103.254.
In the case of `Oc1ccc(Cn2cnc3ccccc32)c2cccnc12` [CBK291202], the “% of control remaining” value is reported as 46.2621.
For `N#Cc1ccccc1Cn1cc(C(=O)C(N)=O)c2ccccc21` [CBK269862], the “% of control remaining” value was 68.971.
For `Cc1cc(C(=O)NCCn2ccnc2C)c2ccccc2n1` [CBK281895], the “% of control remaining” value was 90.0041.
With `O=C1CCN(Cc2ccccc2)CCN1C(=O)c1cccs1` [CBK284828] the “% of control remaining” value was 95.2998.
With `CC(C)Nc1nccnc1Sc1cccc2ccccc12` [CBK089493] the “% of control remaining” value was 92.5918.
With `CC(=O)N1CCN(c2ccc(NC(=O)C3C(C(=O)O)C3(C)C)cc2)CC1` (stereo not drawn) [CBK300545] the “% of control remaining” value was 71.1779.
With `O=C1CCN(C(=O)c2ccccn2)CCN1Cc1cccc(F)c1` [CBK284467] the “% of control remaining” value was 99.798.
`O=S(=O)(Nc1nccnc1-c1cccs1)c1ccccc1Cl` [CBK050775] was tested, and the “% of control remaining” value was 106.148.
In the case of `O=C(c1ccccc1F)N1CCC(n2cnc3cccnc32)CC1` [CBK283937], the “% of control remaining” value is reported as 78.6829.
In the case of `CSc1nc2ncnc(N3CCC(O)CC3)c2s1` [CBK022082], the “% of control remaining” value is reported as 101.045.
`COc1ccc2c(c1)CC(=O)NC21CCN(C(=O)CCCC(=O)O)CC1` [CBK047208] was tested, and the “% of control remaining” value was 104.843.
For `COc1ccc(CN2CCN(C(=O)c3cccc(N(C)C)c3)CC2)cc1` [CBK305713], the “% of control remaining” value was 52.8733.
With `CC1CCN(c2nc(-c3ccccc3O)nc3ccccc23)CC1` [CBK066899] the “% of control remaining” value was 92.741.
`O=C(Nc1ccc(-c2cccc(F)c2)cc1)c1ccccc1Cn1cncn1` [CBK285565] was tested, and the “% of control remaining” value was 95.9799.
For `Cc1ccc(CSCCNC(=O)/C=C/c2ccccc2)cc1` [CBK263985], the “% of control remaining” value was 104.147.
With `CC(C)N(Cc1nc(-c2ccccc2)no1)C(=O)Nc1cccc(Cl)c1` [CBK269871] the “% of control remaining” value was 87.7361.
`CCc1ncc2c(n1)CN(Cc1cc(=O)n3cccc(C)c3n1)CC2` [CBK305914] was tested, and the “% of control remaining” value was 53.6472.
In the case of `CCOC(=O)c1cnc2c(C)cc(Cl)cc2c1NCCN(C)C` [CBK264800], the “% of control remaining” value is reported as 114.882.

From publication PMC12040169 (PLOS Biology, 2025)
